Measured values reported in the supplement of paper PMC11417369.
± gives the standard deviation of the averaged measurements. This is one part of the list.

Tested on: PfAP2-EXP AP2 domain (GST-tagged)
Assay: gcPBM binding intensity (ln(normalized median fluorescence intensity)); higher = stronger DNA binding
How it was run: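 An Agilent 4 × 180k array carrying primer-extended double-stranded 36-bp intergenic genomic probes and negative controls received GST-tagged P. falciparum DNA-binding domains expressed in E. coli, about 25 μg on average, for 1 h. The binding buffer contained 1× PBS, 1% milk, 0.2 mg/ml BSA, 0.5% salmon testes DNA and 0.03% Triton X-100. Binding intensity is the top Masliner-normalised natural-log median intensity across replicate spots of either probe orientation, read after Alexa488 anti-GST antibody staining and a 488 nm scan.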

Sequence | gcPBM binding intensity (ln)
ACAAATCTAAGATAGTGTACATTTATATATATATAT [XGTACX_site8740] | 9.91 ± 0.31
AATATAAATAAAAACACACACACACCCATATATATA [CACACA_site2267] | 8.9 ± 0.29
TTTATATACACACAGAAGAACAGAAATATTATATAT [TGCATGCA_negctrl_site483] | 8.78 ± 0.54
ATATATATATAATAAACACACACATATACATATATG [CACACA_site9145] | 9.63 ± 0.22
ATTTTTTTTTTTTTTTTTTTTTTTTGGAGAAAGAGA [CACACA_negctrl_site1119] | 8.02 ± 0.64
TATATATATATATAAGTGCATATAAAAATCGTTCGT | 10.3 ± 0.18
TATTATTACGTAATATGTACATATATTTATACCACT [XGTACX_site5918] | 8.95 ± 0.52
AGGAAAAACTTGAATGCATGCGCACATTCTAGTTTG [TGCATGCA_site776] | 8.71 ± 0.21
TTATAACACATTACATGTACAAATATAAATATATTC [XGTACX_site6503] | 8.53 ± 0.38
AAAAATATATATAACACACACATAATATATATATAT [CACACA_site2537] | 9.71 ± 0.099
AAAAAAAAAAAAAAATGTACAAAAATTACTATAAAA [XGTACX_site7683] | 8.29 ± 0.36
TTTTTTTTTGTTTACACACACAAAATATTATATGTA [CACACA_site2470] | 8.46 ± 0.42
TATTAATAAAACCGTTGTACTACATACATAAATATT [XGTACX_site5578] | 8.49 ± 0.35
CATTATATGATTTATGTGCACATTCATTTATTTTAA | 8.83 ± 0.099
AAAAATCAATTAGAAGAACACACGTAAATTTTTTTT [CACACA_site2396] | 8.57 ± 0.47
ATACTATATATATAAGTGCATGTTCATTATACCTAA | 8.75 ± 0.31
ATAACTAAATGATATTGTACAAAATAATTATATATT [XGTACX_site1331] | 8.53 ± 0.33
ATATATATTATGTGTGTGCACTTTTGTTATTATTAT | 9 ± 0.33
TAAATGGGTGTTAATGCACACGATATGTCTATATAT [CACACA_site5321] | 8.61 ± 0.34

Sequence | gcPBM binding intensity (ln)
TATTTATTTTTCTGTTGTACTTTTCAACATGTTACA [XGTACX_site7457] | 8.87 ± 0.47
TCTACATATTAATTATGTACGAATTATTATTAGTAA [XGTACX_site6924] | 8.12 ± 0.28
TATTTATGTTCATATAAACACACGTAAAATTCAAGG [CACACA_site1538] | 8.62 ± 0.39
TCAATAAAAAAAAACGCACACACAAATATATTCCAT [CACACA_site1223] | 8.7 ± 0.56
CATATTCATAAAAGTTGTACATGCAATTTTTTTTTT [XGTACX_site2261] | 8.74 ± 0.38
GTCCCTATAAGGGGAACACACATAAATGGATATATA [CACACA_site6612] | 8.51 ± 0.53
AAATACAAAATTGTTACACACATATTAAGTATGACA [CACACA_site4421] | 8.28 ± 0.44
AACGTTCAATTTAAATGTACAAATGTATTTAAATAT [XGTACX_site315] | 8.42 ± 0.35
AGTTTAGAATTTAATACACACAAAAAAAAAAAATTA [CACACA_site7698] | 8.39 ± 0.39
TTTCTTTTTTCATTTACACACAATAATATAAGAATA [CACACA_site3164] | 8.58 ± 0.37
TACACAAATATATATATATATATATATATATATATA [XGTACX_negctrl_site305] | 10.2 ± 0.14
TATTACACATATTATACACACATATATTATATATAT [CACACA_site4951] | 8.69 ± 0.25
TAACATATTTTTAATACACACTTAAAAAAGTACTTA [CACACA_site4875] | 8.31 ± 0.34
TTAAATTGAATTAGTTAACACACAACTTTTATTTCA [CACACA_site8921] | 8.17 ± 0.38
TCTTCATACGACTAAAAAACATTAGACTGATAAAAA [CACACA_negctrl_site628] | 8.38 ± 0.35
TTGTGTTTTACATATACATGCAAATTTTTTTTTTTA [TGCATGCA_site303] | 8.52 ± 0.17
TAAATCATTTCATGGCATTTACACAAAATTTTTTAA [CACACA_negctrl_site1260] | 8.38 ± 0.44
TATTTATTTATATAAACACACATAAATATAAATATA [CACACA_site6653] | 8.3 ± 0.47
TATATATAATATTATACACACATATATGCATAATAT [CACACA_site54] | 8.77 ± 0.38

Sequence | gcPBM binding intensity (ln)
TATAGCATAAATATGTGTACATATTTATATGATATT [XGTACX_site6333] | 8.37 ± 0.28
ATATATATTTAAAAAAGTACAGAAGAAAATAACCCA [XGTACX_site642] | 9.03 ± 0.52
TGAAACCATAAAGAATGTACACAGCGGTATAAGTTA [XGTACX_site674] | 8.8 ± 0.44
AATAAAATAAGAAGCACACAAATATTATATATAAAA [CACACA_site3980] | 8.78 ± 0.42
TTTTAAATAATACATACATGCATATATACACATATA [TGCATGCA_site8] | 8.56 ± 0.39
TTAATATATTTAAATATATATAAAATATATAATATG [CACACA_negctrl_site880] | 8.12 ± 0.3
TTCTTTTCTTCTACATGTACAAATATTATATATATA [XGTACX_site2996] | 9.29 ± 0.46
TTTTGGAATTTTAGCTGTACTTTTCCTATTTTGTAT [XGTACX_site7679] | 8.73 ± 0.43
ATTATTATTAATAGTACACACTATGGCATTTCAATA [CACACA_site5388] | 8.58 ± 0.28
TATTTCACAACTTGTCGTACATTAATTGTATTATTT [XGTACX_site997] | 8.8 ± 0.38
TATATAACTGTCTTCACACACACATATAAATAAATA [CACACA_site7317] | 8.54 ± 0.43
ATCTTTCATCTACCAAGTACAAATTACTTTTTTTTT [XGTACX_site7001] | 8.81 ± 0.38
TTAGGTGTATATAATTGTACATTTTGGAAATTATAC [XGTACX_site5492] | 8.43 ± 0.27
TCTTATTTAAAAATAGCACACATTATGTATATATAT [CACACA_site2822] | 8.64 ± 0.13
AGCTCGGAAAAATTAGCATGCAAAAAAAAAAAAAAA [TGCATGCA_site658] | 8.54 ± 0.23
TGCTTATATATACGTGCACACATATATATAAGATAT [CACACA_site8516] | 9.03 ± 0.33
TATTTTAATTATAAATTTAAAAAAAAAAAGAAAAAA [CACACA_negctrl_site1674] | 8.21 ± 0.51
CTGGAGGATGAAAAAAGTACAAAAGGAGGAAATGTA [XGTACX_site8846] | 8.86 ± 0.63
AAAACAAATATATTAACACACAAACATATAAACAAA [CACACA_site6052] | 8.77 ± 0.53
